Measurements from paper PMC7819943, “Rice protein-binding microarrays: a tool to detect cis-acting elements near promoter regions in rice”.
Some of the results follow.

Each sequence was assayed against T1, OsWOX13 (Oryza sativa, UniProt Q5QMM3 1-267) (assay: protein-binding microarray (RPBM); PBS, 2% BSA, 51.3 ng/ul salmon testes DNA, 50 uM zinc acetate, 200 nM TF, 25 C, 1 h; high values mean tight binding). Details: protein: recombinant; tags: N-terminal polyhistidine and DsRed monomer fusion (pET32a); label: CyDye5-dUTP incorporated in the synthesized complementary strand; 3' TTTTT single-stranded linker to array surface; dsDNA, one strand shown.
T1 sequence: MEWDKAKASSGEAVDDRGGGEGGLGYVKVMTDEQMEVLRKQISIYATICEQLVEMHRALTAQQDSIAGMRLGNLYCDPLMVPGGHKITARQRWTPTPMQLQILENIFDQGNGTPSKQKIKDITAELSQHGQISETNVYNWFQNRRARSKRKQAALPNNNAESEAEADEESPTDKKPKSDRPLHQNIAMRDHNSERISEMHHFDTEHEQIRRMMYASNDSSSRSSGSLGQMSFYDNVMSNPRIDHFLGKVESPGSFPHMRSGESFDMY
Outline: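 The binding signal is fluorescence intensity per feature, in arbitrary units, read on an Axon 4000B scanner. Polyhistidine- and DsRed-tagged transcription factors (N-terminal fusions) from E. coli BL21-CodonPlus were purified on Ni–NTA and applied at 200 nM for 1 h at 25 °C to a double-stranded, BSA-blocked custom Agilent array in buffer with 50 µM zinc acetate.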

In order of rising binding signal:
1. ATAATTAGTCGTGTGCATCACCGTCATCTGGTATCTCTTGCGGAGTCACCTAGTGCAG  3180 fluorescence intensity (a.u.)
2. AAACAATTACTCCCTTTATTAGGTTTAAATAAGTCACAAGCGGAGTCACCTAGTGCAG  3660 fluorescence intensity (a.u.)
3. TATCTAAACAAAATTAACAGGAACACCATATAACAGATTACGGAGTCACCTAGTGCAG  3670 fluorescence intensity (a.u.)
4. CTTTTAACTTGAAATTTAAATTTGTAAGACAAAATTTAAACGGAGTCACCTAGTGCAG  3690 fluorescence intensity (a.u.)
5. TTCATGAAATGATCCTGACAGATCATACACGATTGTACATCGGAGTCACCTAGTGCAG  3750 fluorescence intensity (a.u.)
6. TAACATTTATCTAAATAAATAAATTTGTAGTGGCACGGATCGGAGTCACCTAGTGCAG  3820 fluorescence intensity (a.u.)
7. CAACTACTCATTCCAAATTATCTATAACCAATCTAACAGCCGGAGTCACCTAGTGCAG  4140 fluorescence intensity (a.u.)
8. TCAAAATCTAACTTTCTAGTTAATTTCGTGAGATAGCTCTCGGAGTCACCTAGTGCAG  4150 fluorescence intensity (a.u.)
9. TTGATTTACCTCTCTACTTTAATTTAATTTAGAATACTAACGGAGTCACCTAGTGCAG  4270 fluorescence intensity (a.u.)
10. AATAATTTACCTTGTTCTACCGTAGCAAATAAAGACTCAACGGAGTCACCTAGTGCAG  4290 fluorescence intensity (a.u.)
11. TCCTTTTAACAGCGCATTTGTCTATTGAGAAAATTGATTCCGGAGTCACCTAGTGCAG  4650 fluorescence intensity (a.u.)
12. TTATTAATTTCTAGTATTAGTTTGTGTTGTCTAGACATTTCGGAGTCACCTAGTGCAG  4720 fluorescence intensity (a.u.)
13. AGTTCAACTGCGATAATTGAGCTGCTCATGCTATTTGTTCCGGAGTCACCTAGTGCAG  4870 fluorescence intensity (a.u.)
14. TGAGTAAATGTGTTGTTGTTAATTGCTATATGTACAGTTGCGGAGTCACCTAGTGCAG  5280 fluorescence intensity (a.u.)
15. ATTAATTGATCCTCCTTAGAAGATGAACTCAGACTTCAAACGGAGTCACCTAGTGCAG  5530 fluorescence intensity (a.u.)
16. AAAATCTAAGTAATTATTAATTCTTTTCCTATCATTTGATCGGAGTCACCTAGTGCAG  6010 fluorescence intensity (a.u.)
17. TTATAAACAGATGAAGTACCGCATATAACTTATTGCCTTGCGGAGTCACCTAGTGCAG  6130 fluorescence intensity (a.u.)
18. GGTGAATGAGGTTATTATAATTACCAGAACCACGGGGAAGCGGAGTCACCTAGTGCAG  6480 fluorescence intensity (a.u.)
19. AGTACATAATTTATTTTCATTTTACATCATATACTATGTACGGAGTCACCTAGTGCAG  7120 fluorescence intensity (a.u.)
20. AGACTGAATGGCAACTGACAACTTTCTTGTATAAATCACACGGAGTCACCTAGTGCAG  7690 fluorescence intensity (a.u.)
21. TCGTTGTAATTAAATCTTTACAACAAGATATCATATGATTCGGAGTCACCTAGTGCAG  8340 fluorescence intensity (a.u.)
22. CCGCTGTAGCTGATTGCCAGTGTCAGATCAAGCTGTGAATCGGAGTCACCTAGTGCAG  9800 fluorescence intensity (a.u.)
23. TAACTTTTCAATCACATCAAAACTTTTCTACACACGTAAACGGAGTCACCTAGTGCAG  9800 fluorescence intensity (a.u.)
24. ATGGTGTATAAATTAATCACACATTAAAATTGTCCCGTGACGGAGTCACCTAGTGCAG  9920 fluorescence intensity (a.u.)
25. CAAACCGATTGAGGGGCGTGATTTGAACTCGACGCTTATTCGGAGTCACCTAGTGCAG  10700 fluorescence intensity (a.u.)
26. TTATTTAATTAGTATATACATTTAGGTTTGCTTGATAAGACGGAGTCACCTAGTGCAG  11600 fluorescence intensity (a.u.)
27. ATAACCACAATAGTTATGACTGTACTACTTACTCTTTATACGGAGTCACCTAGTGCAG  14300 fluorescence intensity (a.u.)
28. TTAATTAATTTTAAATAATATGCATAAAACGAGGGGATATCGGAGTCACCTAGTGCAG  15600 fluorescence intensity (a.u.)
29. TATGCACCAAAAGTCACATCAACTATAGCCTAGATTCATACGGAGTCACCTAGTGCAG  16100 fluorescence intensity (a.u.)
30. GTTTGGATTGAAGCCAATTCTTGCCCTATCAATTATTTGGCGGAGTCACCTAGTGCAG  16500 fluorescence intensity (a.u.)
31. ACTATCTTAATTAGTGGTAGTCACTGGTGCCCAGGCGACGCGGAGTCACCTAGTGCAG  18200 fluorescence intensity (a.u.)
32. CCTCGTCTAGATTGAAACAGAGATAATTAGGCAACGTGAACGGAGTCACCTAGTGCAG  18400 fluorescence intensity (a.u.)
33. CTAATCATGGACTAATTAGGCACAAAAGATTCGTCTCGCACGGAGTCACCTAGTGCAG  18400 fluorescence intensity (a.u.)
34. ACTAAACAGGGCCTAATTAAGCTGTGTATAGTAAGCACAACGGAGTCACCTAGTGCAG  20800 fluorescence intensity (a.u.)
35. CTTTTGATTGTTCGTTTTGCTATGATTTTGTTCAAGTTAACGGAGTCACCTAGTGCAG  22800 fluorescence intensity (a.u.)
36. AGCTAATTATGGCCAAGGCCTACTTGCAGTTTGCTTCCCTCGGAGTCACCTAGTGCAG  25600 fluorescence intensity (a.u.)
37. TTGTTGACAAGCATCATGATTAGTACAACCATGTGTCTATCGGAGTCACCTAGTGCAG  25800 fluorescence intensity (a.u.)
38. TTTAATTAGTTCGTTATCGGTTCCCTACAAACCGCAAACGCGGAGTCACCTAGTGCAG  26600 fluorescence intensity (a.u.)
39. CTACTGAGCATAATTAATTTATAATTAGCATATGTGATAACGGAGTCACCTAGTGCAG  28500 fluorescence intensity (a.u.)
40. TTGCACATTGATTGTCTCCAATTTTGGTGAGTTTTCGGCACGGAGTCACCTAGTGCAG  28800 fluorescence intensity (a.u.)
41. TTACTAATTTAGTTTAAACAGGTACAATTAATTACTCGCGCGGAGTCACCTAGTGCAG  45300 fluorescence intensity (a.u.)
42. CTTTAATTTGGTAAGCTTAATTATGTTACCCGGTTACCCCCGGAGTCACCTAGTGCAG  45800 fluorescence intensity (a.u.)
